Measurements from PubChem BioAssay (NCI).
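Compound exposure: 48 hours, 5 concentrations, 96-well plates. Here, GI50 denotes the concentration required for 50% inhibition of growth. TGI denotes the concentration required for complete inhibition of growth.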

Tested on: NCI-H322M lung
Assay: NCI tumour cell line growth inhibition, 48 h

## COc1cc(CNC(=O)/C=C/c2ccc3c(c2)OCO3)ccc1OCc1cn(-c2cccc(C(F)(F)F)c2)nn1
  GI50: 9.69 µM
  TGI: 26.8 µM
